For six molecules, binding signal results are on record in PMC12136788.

The chains are these.
B1: chr8:80500255:80500365:+|CDS|ENSG00000205189|unk|total|mutant (ssRNA)
RNA: GGGAGUUCUACAGUCCGACGAUCGAAAAACCAAACUACAAAAAGAUUUAUUUAUAAUAUUCCACCUAAUAAUGAAACGAAUUCCGAAGAUUGCUCAGUAAUGCAGCCACCUGUUGCCUAUCCAGAAGAAAAUACACUACUCAUCAACAGAGGAUUGAGCAUCA
B2: chrX:40073105:40073212:-|CDS|ENSG00000183337|unk|FALSE|unique (ssRNA)
RNA: GGGAGUUCUACAGUCCGACGAUCCUACCAAGAUGCCCUGGGGUUGGGCAUGGUGCAUCCCAUGUUGAUACCACACACGCCCAUAGAGAUUACUAAAGAGGAGAAACCAGAGAGGAGAUCCCGGUCCCAUGAGAGAGCCCGUUACAACAGAGGAUUGAGCAUCA
B3: chr18:9257137:9257239:+|CDS|ENSG00000101745|unk|FALSE|bound_elsewhere (ssRNA)
RNA: GGGAGUUCUACAGUCCGACGAUCUCUUAGGUCAUCUUCUGUAGAAGAUGUUAAACUAAUUAUAAGCGAGGGGAGACCUACCAUAGAAGUUCGAAGAUGUAGCAUGCCUUCUGUCAUUUGUGAACAUACCAAACAAUUCCAAACCAACAGAGGAUUGAGCAUCA
B4: chr10:99876058:99876159:-|3pUTR|ENSG00000107554|msi1|total|mutant (ssRNA)
RNA: GGGAGUUCUACAGUCCGACGAUCUUGAGCCUAAUGGAAGACUGGAUGUCUUUCUUCUUCAUCCAAGCACCCUAAUGACUGUUCCGUUACAUCCACCGAUGCAGACAACAUAACACCUGUGACUUACUUGAAUUGGGAUAAGCCCAACAGAGGAUUGAGCAUCA
B5: chr4:127885990:127886091:+|CDS|ENSG00000142731|msi1|total|mutant (ssRNA)
RNA: GGGAGUUCUACAGUCCGACGAUCAUUACUUAUCGGGAGACCACCCUUCGACACUGACACAGUCAAGAACACAUUAAAUAAAGCCGUAUUGGCAGAUUAUGAAAUGCCAUCUUUUUUGUCAACCGAGGCCAAGGACCUUAUUCACAACAGAGGAUUGAGCAUCA
B6: ENSG00000124766:be:win_3651|3pUTR|ENSG00000124766|bound_else_gene|NA|bound_elsewhere_windowed (ssRNA)
RNA: GGGAGUUCUACAGUCCGACGAUCUCGCUAAAUAUAAUUGUUUUAGUCUUAUGGCAUGAUGAUAGCAUAUGUGUUCAGGUUUAUAGCUGUUGUGUUUAAAAAUUGAAAAAAGUGGAAAACAUCUUUGUACAUUUAAGUCUGUAUCAACAGAGGAUUGAGCAUCA

This is one part of the list.

For this assay, the target named is MSI1 full-length (mouse, UniProt Q61474 1-362). The experiment in a line: nsRBNS (natural sequence RNA bind-n-seq); RBNS binding buffer (assumed for nsRBNS): 25 mM Tris pH 7.5, 150 mM KCl, 3 mM MgCl2, 0.01% Triton X-100, 500 ug/ml BSA, 20 U/ml SUPERase-In, 4 C; UNK is unkempt and MSI1 is Musashi-1; names of the RNAs are library labels; protein concentration not given here; high values mean tight binding.
UniProt Q61474, sequence (Q61474 whole entry): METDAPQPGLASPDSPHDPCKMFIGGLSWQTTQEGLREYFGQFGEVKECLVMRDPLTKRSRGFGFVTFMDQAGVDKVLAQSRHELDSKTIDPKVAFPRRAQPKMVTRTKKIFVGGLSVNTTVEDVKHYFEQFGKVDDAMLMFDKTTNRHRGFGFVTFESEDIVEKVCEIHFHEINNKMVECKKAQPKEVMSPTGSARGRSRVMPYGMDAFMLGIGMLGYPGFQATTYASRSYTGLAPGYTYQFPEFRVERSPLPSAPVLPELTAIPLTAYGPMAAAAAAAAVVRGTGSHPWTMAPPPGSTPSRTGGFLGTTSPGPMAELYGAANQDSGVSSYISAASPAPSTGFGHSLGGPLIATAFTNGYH
B1: the binding signal was 3.62 enrichment R.
To B2 belongs 0.783 enrichment R; to B3, 3.65 enrichment R.
Molecule B4 displayed a binding signal of 0.387 enrichment R.
In turn, B5 had a binding signal of 0.3 enrichment R.
In the case of B6, the binding signal is 2.43 enrichment R.
